Measurements reported in PubChem BioAssay AID504332 (National Center for Advancing Translational Sciences (NCATS), 2011).
Out of some 350,000 compounds screened, about 31,000 (8.9%) were called active. The inconclusive results got no clear call from the source; some entries with a clear call stand among them for comparison. Calls come from the whole dose curve; as a rule, active = well fitted inhibition curve with a large enough effect; inconclusive = small, poorly fitted or top-dose-only effect; inactive = no such curve, though single readings can be large or run the other way. Potencies of inconclusive entries are doubtful fits and often do not repeat.

target: Histone-lysine N-methyltransferase EHMT2 (Homo sapiens) (UniProt Q96KQ7); assay: qHTS Assay for Inhibitors of Histone Lysine Methyltransferase G9a; settings: G9a H3K9 monomethylation, AlphaScreen, 2 h; activity, negative = inhibition: at 59 µM (top of the series) unless noted; note: nearly all actives have a fitted effect of over 75% in size
Chain of UniProt Q96KQ7 (Q96KQ7 whole entry, looked up): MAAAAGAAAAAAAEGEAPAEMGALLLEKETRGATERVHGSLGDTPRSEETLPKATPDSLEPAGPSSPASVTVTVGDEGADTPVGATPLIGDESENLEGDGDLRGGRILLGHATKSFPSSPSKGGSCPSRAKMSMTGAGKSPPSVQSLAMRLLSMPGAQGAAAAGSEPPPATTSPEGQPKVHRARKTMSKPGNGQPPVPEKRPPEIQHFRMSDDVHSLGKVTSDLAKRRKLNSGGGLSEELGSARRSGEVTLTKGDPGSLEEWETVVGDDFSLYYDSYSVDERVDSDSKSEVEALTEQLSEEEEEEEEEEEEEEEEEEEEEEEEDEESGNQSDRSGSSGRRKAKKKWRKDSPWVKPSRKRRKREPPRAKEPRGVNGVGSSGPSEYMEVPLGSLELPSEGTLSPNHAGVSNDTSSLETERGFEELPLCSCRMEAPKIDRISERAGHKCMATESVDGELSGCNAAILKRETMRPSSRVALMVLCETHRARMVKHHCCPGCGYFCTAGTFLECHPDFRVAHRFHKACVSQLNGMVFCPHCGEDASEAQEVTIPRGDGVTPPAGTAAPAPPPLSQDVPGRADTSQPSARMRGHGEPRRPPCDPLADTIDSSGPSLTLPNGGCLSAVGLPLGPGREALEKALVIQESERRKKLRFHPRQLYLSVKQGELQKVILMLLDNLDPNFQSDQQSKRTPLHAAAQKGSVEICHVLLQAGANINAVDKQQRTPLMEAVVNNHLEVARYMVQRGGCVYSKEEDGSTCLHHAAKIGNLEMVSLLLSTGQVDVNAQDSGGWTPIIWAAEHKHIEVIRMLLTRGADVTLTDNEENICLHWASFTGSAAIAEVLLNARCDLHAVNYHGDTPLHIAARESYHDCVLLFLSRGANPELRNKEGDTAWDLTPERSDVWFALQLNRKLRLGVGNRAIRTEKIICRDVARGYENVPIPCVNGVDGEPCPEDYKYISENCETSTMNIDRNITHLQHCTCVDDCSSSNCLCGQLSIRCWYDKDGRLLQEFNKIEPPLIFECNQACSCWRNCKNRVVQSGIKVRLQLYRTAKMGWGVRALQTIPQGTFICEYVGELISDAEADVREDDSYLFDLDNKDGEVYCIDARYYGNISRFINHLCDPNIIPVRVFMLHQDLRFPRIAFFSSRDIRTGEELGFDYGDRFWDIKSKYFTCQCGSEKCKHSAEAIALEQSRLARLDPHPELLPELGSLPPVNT
Procedure, shortened: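 Readings reflect AlphaScreen signal from monomethyl-H3K9 antibody detection. HMT at 20 nM; substrate b-H3K9 500 nM; cofactor SAM 20 uM; 2 h RT reaction; compounds tested as titrations in qHTS with 15 min preincubation.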
% is set by controls: 0 for no effect and ±100 for the full control effect; potency is the fitted concentration of half-maximal effect; tags give direction and shape of the fitted curve.

| Structure (SMILES) | Potency | activity, negative = inhibition |
| --- | --- | --- |
| COc1ccc(-c2cn3c(C)c(C(=O)Nc4cc(C)cc(C)c4)sc3n2)cc1 | inactive | – |
| COc1ccccc1N(CC(=O)NCCSCc1ccco1)S(=O)(=O)c1ccccc1 | inconclusive: 79.4 µM [inhibitor, single point] | – |
| Cc1ccccc1NC1=NC(C)(C)N=C(N)N1 | – | inactive: -4% [at 12.7 µM] |
| CCOC(=O)c1[nH]c(C)c(C(=O)OCC(=O)NCc2ccc(Cl)cc2)c1C | – | inactive: 18.1% [at 12.7 µM] |
| COc1cc(/C=C2/C(=N)N3OC(C)=CC3=NC2=O)ccc1OCCOc1ccc(C)cc1 | – | inactive: 10.1% [at 0.0925 µM] |
| CC1(C)O[C@@H]2[C@H](O1)[C@@H](CO)O[C@H]2n1c(N2CCCCC2)nc2c(N)ncnc21 | – | inactive: 9.14% [at 0.501 µM] |
| CCN(CC)S(=O)(=O)c1ccc(N2CCN(C)CC2)c(NC(=O)Nc2ccccc2F)c1 | active: 39.8 µM | – |
| OCCNc1nc2ccccc2nc1NCCO | inconclusive: 89.1 µM [inhibitor, partial curve, poor fit] | – |
| O=C(Cc1ccccc1)N/N=C/c1ccc(OC(=O)/C=C\c2ccco2)cc1 | inconclusive: 31.6 µM [inhibitor, single point] | – |
| C/C(=N\O)C(=O)C(CN1CCCCC1)CN1CCCCC1 | active: 0.891 µM | – |
| CC1CCN(C(=O)C2CCC(CNS(=O)(=O)c3cccc4cccnc34)CC2)CC1 (centres undefined) | inconclusive: 79.4 µM [inhibitor, single point] | – |
| O=C(NC1CCC(O)CC1)c1ccc(-c2ccc([N+](=O)[O-])cc2)o1 (centres undefined) | – | inconclusive: -89.1% [inhibitor] |
| CN1C(=O)/C(=C\C=C2/CCCN2C)N(C)C1=S | active: 17.8 µM | – |
| O=C(OCCCCN1C(=O)c2ccccc2C1=O)c1ccc(Br)o1 | inactive | – |
| Cc1[nH]c(C)c(S(=O)(=O)N2CCN(c3cccc(C(F)(F)F)c3)CC2)c1C(=O)N1CCCC1 | inconclusive: 79.4 µM [inhibitor, single point] | – |
| COc1ccc([N+](=O)[O-])cc1NC(=O)CSc1nncn1-c1ccccc1 | inconclusive: 89.1 µM [inhibitor, single point] | – |
| Cc1nn(-c2ccccc2)c(N2CCCC2)c1/C=N/Nc1ccc(S(=O)(=O)Nc2ccccc2)cc1[N+](=O)[O-] | inconclusive: 3.55 µM [inhibitor, single point] | – |
| CCOC(=O)N1CCN(C(=O)/C(=C/c2cccs2)NC(=O)c2cccs2)CC1 | inconclusive: 56.2 µM [inhibitor, single point] | – |
| NC(=O)c1ccc(CN2CCC(Cc3ccccc3)CC2)cc1 | inactive | – |
| COc1ccc2[nH]c3c(c2c1)CCn1c-3nc2sc(C(=O)Nc3ccccc3)c(C)c2c1=O | inactive | – |
| COC(=O)c1ccc(NC(=O)CC2C(=O)N(c3cccc(OC)c3)C(=O)N2C(C)C)cc1 (centres undefined) | inconclusive: 3.16 µM [inhibitor, full curve] | – |
| Cc1onc(-c2ccccc2Cl)c1C(=O)NC(=S)Nc1ccc(C(C)(C)C)cc1 | inconclusive: 50.1 µM [inhibitor, partial curve, poor fit] | – |

| Structure (SMILES) | Potency | activity, negative = inhibition |
| --- | --- | --- |
| O=C1C(=O)c2ccccc2C(O)=C1c1cccc([N+](=O)[O-])c1 | active: 56.2 µM | – |
| CCN1CCN(CCCN(Cc2ccco2)C(=S)Nc2ccc(Cl)c(C)c2)CC1 | inconclusive: 56.2 µM [inhibitor, single point] | – |
| CCOC(=O)c1cc(C(=O)OCC)c(=O)[nH]c1C | inactive | – |
| CCOc1cc(C(=O)Nc2ccc3c(c2)n(C)c(=O)c(=O)n3C)cc(OCC)c1OCC | inactive | – |
| CCn1c(COc2ccccc2)nnc1SCC(=O)CC(=O)Nc1ccccc1OC | inconclusive: 79.4 µM [inhibitor, partial curve, poor fit] | – |
| O=C(c1ccco1)N1CCN(Cc2cc(=O)c(OCc3ccccc3)co2)CC1 | inconclusive: 100 µM [inhibitor, single point] | – |
| O=[N+]([O-])c1ccccc1CN1CCN(Cc2ccccn2)CC1 | active: 3.98 µM | – |
| CCNc1nc(-c2cc3ccccc3o2)cs1 | inconclusive: 22.4 µM [inhibitor, single point] | – |
| COc1ccc(C2/C=C\CN(Cc3ccc(N(C)C)cc3)CC(=O)N2Cc2ccc(F)cc2)cc1 (centres undefined) | inconclusive: 7.94 µM [inhibitor, single point] | – |
| C/C(=N/NC(=O)c1ccncc1)c1ccc(NC(=O)c2ccccc2)cc1 | inconclusive: 79.4 µM [inhibitor, single point] | – |
| COc1ccc(Cn2c(=O)[nH]c3cc(C(=O)NCCCN4CCCC4=O)ccc3c2=O)cc1 | – | inactive: 8.44% [at 2.33 µM] |
| COc1c(/C=N/Nc2ccc(C(=O)O)cc2)c(CCN(C)C(C)=O)cc2c1OCO2 | active: 44.7 µM | – |
| COc1ccc(N2CCN(CC(=O)NCc3ccccc3)CC2)cc1 | inconclusive: 44.7 µM [inhibitor, partial curve] | – |
| O=S(=O)(Nc1cc(Sc2cccc3cccnc23)c(O)c2ccccc12)c1ccc(F)cc1 | active: 2 µM | – |
| COc1ccccc1CNCc1cccc(Oc2ccccc2)c1 | active: 8.91 µM | – |
| CC(=O)Nc1ccc(S(=O)(=O)N(C)Cc2ccccc2)cc1 | inconclusive: 79.4 µM [inhibitor, partial curve, poor fit] | – |
| O=C(NCC1CCCO1)c1ccc(OC2CCN(C(=O)C3CC3)CC2)cc1 (centres undefined) | inactive | – |
| N#Cc1c(-c2ccccc2)nc(SCc2cccc(C(F)(F)F)c2)[nH]c1=O | inconclusive: 63.1 µM [inhibitor, partial curve, poor fit] | – |
| N#CC(C(=O)NCc1ccccc1)c1nc2ccccc2nc1N1CCCC1 (centres undefined) | inconclusive: 50.1 µM [inhibitor, partial curve, poor fit] | – |
| O=C1C(Cl)=C(N2CCOCC2)C(=O)N1CCc1ccccc1 | – | inactive: 28.6% [at 12.7 µM] |
| CCCCOc1ccc(C(=O)NCc2nnnn2-c2ccc(C)c(C)c2)cc1 | inactive | – |
| CCN(CC)CCNC(=S)Nc1ccc(Cl)cc1 | inconclusive: 17.8 µM [inhibitor, single point] | – |
